# Laboratory results published in PubChem BioAssay AID488969 (Vanderbilt High Throughput Screening Facility, 2010).
# Whole data set: some 110,000 compounds, median “z-score” near -0.1, cut for the highest 2% near 2. The list shows a part of the results. Active and inactive are the calls of the source.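 How the source made its calls: active means z-score in the third read window above 3 or below -3; inactive means the rest.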
# Target: Metabotropic glutamate receptor 8 (Rattus norvegicus) (UniProt P70579)
# UniProt P70579, sequence (P70579 whole entry, looked up): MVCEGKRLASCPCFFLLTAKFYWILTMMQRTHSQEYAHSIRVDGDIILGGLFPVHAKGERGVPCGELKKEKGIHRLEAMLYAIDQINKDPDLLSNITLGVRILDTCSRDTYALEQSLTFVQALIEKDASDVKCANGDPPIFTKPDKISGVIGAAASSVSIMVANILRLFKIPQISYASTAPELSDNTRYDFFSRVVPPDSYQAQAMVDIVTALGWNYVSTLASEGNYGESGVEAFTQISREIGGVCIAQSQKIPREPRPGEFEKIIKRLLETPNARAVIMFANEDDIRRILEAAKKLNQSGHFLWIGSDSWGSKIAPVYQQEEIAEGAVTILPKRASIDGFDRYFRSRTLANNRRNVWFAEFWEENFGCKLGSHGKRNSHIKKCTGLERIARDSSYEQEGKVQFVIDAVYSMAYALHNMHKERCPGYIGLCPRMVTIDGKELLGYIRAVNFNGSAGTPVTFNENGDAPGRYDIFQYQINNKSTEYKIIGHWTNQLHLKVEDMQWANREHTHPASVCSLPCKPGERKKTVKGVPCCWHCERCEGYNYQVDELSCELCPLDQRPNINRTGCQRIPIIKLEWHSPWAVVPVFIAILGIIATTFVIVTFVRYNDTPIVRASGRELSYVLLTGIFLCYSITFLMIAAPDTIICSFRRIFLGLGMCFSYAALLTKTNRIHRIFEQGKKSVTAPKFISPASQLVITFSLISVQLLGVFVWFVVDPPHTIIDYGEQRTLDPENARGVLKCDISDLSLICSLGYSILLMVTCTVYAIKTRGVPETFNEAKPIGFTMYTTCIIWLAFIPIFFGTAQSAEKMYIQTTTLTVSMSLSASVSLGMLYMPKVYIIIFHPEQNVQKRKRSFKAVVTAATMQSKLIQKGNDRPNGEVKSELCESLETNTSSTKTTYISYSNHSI
# Assay: rat mGluR8 modulators via GIRK flux, primary screen, cell-based, thallium flux, HTS (AID 488969)
# Conditions: HEK293 rat mGluR8, GIRK (G protein-gated inwardly rectifying potassium channel) thallium flux, FluoZin2; at 10 µM; stronger effect = higher value; submaximal glutamate (EC20) added with thallium
row,SMILES,z-score
1,O=C(Nc1nc2ccccc2[nH]1)c1ccc(F)c(S(=O)(=O)N2CCOCC2)c1,-0.0727
2,COCc1c(C#N)c(NCCc2ccccc2)nc(C)c1[N+](=O)[O-],-0.0955
3,COc1cccc(Cn2nnc(C(=O)NCc3ccccc3Cl)c2N)c1,-0.0514
4,CN1C(=O)C2(c3ccccc31)N(C)CC(c1ccccc1)C21SC(=S)N(Cc2ccco2)C1=O (stereo not drawn),-0.0787
5,Cc1ccc(-c2nnc(SCC(=O)N3c4ccccc4NC(=O)C3(C)C)n2N)cc1,-1.66
6,O=C(Nc1ccc(N2CCCC2)cc1)C(c1ccccc1)c1ccccc1,-0.177
7,CCc1cc(C(c2ccc(F)cc2)N2CCOCC2)c(NC(=O)c2ccccc2)s1 (stereo not drawn),-0.163
8,COc1ccc(CCn2c(=N)c(C(=O)N3CCN(C)CC3)cc3c(=O)n4ccccc4nc32)cc1,-0.214
9,COc1ccc(-c2nnc(SCc3ccccn3)n2C)cc1,0.00196
10,COc1ccc2nc(/N=C/c3c(C)[nH]n(-c4ccc(C)cc4C)c3=O)sc2c1,active: 15.7
11,CC(C)(C)NC(=O)c1cccc(NC(=O)c2ccco2)c1,0.16
12,Cc1ccc2cc(C#N)c(SCc3nnc(-c4ccccc4[N+](=O)[O-])o3)nc2c1,-0.164
13,Cc1onc(-c2ccccc2Cl)c1C(=O)NCc1ccccc1,0.341
14,COCC(C)n1c(C)cc(C(=O)COC(=O)c2nc3nc(C)cc(C)n3n2)c1C (stereo not drawn),-0.517
15,O=C(Nc1cc(Sc2ccccn2)cc([N+](=O)[O-])c1)c1cccc(F)c1,-0.502
16,O=C(Nc1nnc(C23CC4CC(CC(C4)C2)C3)s1)c1ccc(N2C(=O)CCC2=O)cc1,-0.327
17,CCCCNC(=O)CN(C1CCCCC1)S(C)(=O)=O,0.405
18,Cn1c(=O)c2c(ncn2CC(=O)N2CCN(c3cccc(Cl)c3)CC2)n(C)c1=O,-0.38
19,O=C(O)CCCC(=O)Nc1ccc(C(=O)NCc2cccnc2)cc1,1.8
20,S=C(Nc1cccc(Cl)c1)N1CCOCC1,-0.312
21,COc1ccc(-n2nc3cc(C)c(NC(=O)c4cccnc4)cc3n2)cc1,0.506
22,O=C(c1cc2c(s1)CCCC2)n1cccn1,-0.397
23,Cc1ccc(C2CC2c2n[nH]c(=S)n2-c2ccc(C)cc2)cc1 (stereo not drawn),2.34

row,SMILES,z-score
1,Cc1ccc(-c2[nH]ncc2/C=N/n2c(COc3ccccc3)nc3ccccc3c2=O)cc1,-0.0421
2,CC(OC(=O)Cc1c(F)cccc1Cl)C(=O)NCCC1=CCCCC1 (stereo not drawn),0.0847
3,O=C(O)CCC(=O)N1CCN(c2nc(-c3ccccc3Cl)c3cc(Br)ccc3n2)CC1,-0.623
4,Cc1ccc(S(=O)(=O)/C(C#N)=C/c2c(N3CCC(C(N)=O)CC3)nc3ccccn3c2=O)cc1,-0.315
5,O=c1cc(-c2ccccc2F)oc2ccccc12,-0.341
6,CC(C)c1ccc(CCNC(=O)c2ccc([N+](=O)[O-])cc2)cc1,-0.0486
7,CCc1ccc(NC(=O)CC2C(=O)NCCN2C(=S)Nc2ccccc2)cc1 (stereo not drawn),-0.127
8,Cc1cc(SCC(=O)Nc2c(C)n(C)n(-c3ccccc3)c2=O)n2c(nc3ccccc32)c1C#N,0.342
9,Cc1ccc(S(=O)(=O)CCc2nnc(NC(=O)c3cccs3)s2)cc1,0.0716
10,CC1=CC=CN2CC(O)CN=C12 (stereo not drawn),-0.219
11,N#Cc1c(-c2cccs2)nc(SCC(=O)c2cccs2)[nH]c1=O,-0.648
12,Cc1onc(-c2ccccc2)c1C(=O)Nc1cccc(OC(C)C)c1,0.45
13,O=S(=O)(Nc1cccc(-c2nc3cccnc3s2)c1)c1ccc2c(c1)OCCO2,-0.38
14,Clc1ccc(Nc2nc(-c3cccnc3)cs2)cc1,-0.11
15,COC(=O)CSc1[nH]c(=O)cc(C)c1C#N,-0.145
16,CC/C(=N\NC(=O)CSCc1ccccc1Br)c1ccc2c(c1)OCCO2,0.132
17,COc1ccc(CCNC(=O)CCCCCN2C(=O)c3ccccc3C2=O)cc1,0.18
18,CCNC(=O)COc1ccc(S(=O)(=O)Nc2ccccc2)cc1,0.695
19,Cc1ccc(N2CCN(c3ccc(C)cc3)C2c2cccnc2)cc1,0.0674
20,COc1ccc(OCCCC(=O)Oc2ccc(OC)cc2)cc1,-0.331
21,O=C(CN1CCN(Cc2ccccc2)CC1)NC(=O)NC1CCCCC1,-0.456
22,COc1ccccc1/C=C/C(=O)NCC(=O)N/N=C/c1cc(Br)ccc1OC,-0.268
23,CC(C)(CO)NS(=O)(=O)c1ccc2c(c1)oc(=O)c1cc(S(=O)(=O)NC(C)(C)CO)ccc12,-0.0653

row,SMILES,z-score
1,OCCNC1=NCCN1,-0.23
2,Cc1cc(O)c(C(C[N+](=O)[O-])c2ccc(Cl)cc2Cl)c(=O)o1 (stereo not drawn),active: -4.08
3,Cc1cccc2c3nc4ccccc4nc3n(CCCN3C(=O)c4ccccc4C3=O)c12,0.773
4,CCCOc1ccc(/C(O)=C2/C(=O)C(=O)N(CCCn3ccnc3)C2c2cccs2)cc1 (stereo not drawn),-0.299
5,CCN(CC)C(=O)CSc1ncnc2c1cnn2Cc1ccccc1,0.13
6,COC(=O)C1=C(C)NC2=C(C(=O)CC(C)(C)C2)C1c1ccsc1 (stereo not drawn),0.803
7,COC(=O)c1ccccc1NC(=O)N1CCCC1,0.518
8,CCOC(=O)C1CCCN(CC(O)COc2ccc(OC)cc2C(C)(C)C)C1 (stereo not drawn),0.707
9,C=CCOC(=O)C1=C(C)NC(SCC(=O)OCC)=C(C#N)C1c1ccc(O)c(OC)c1 (stereo not drawn),-0.622
10,Cc1ccc(C(=O)NC(C)c2ccc(F)cc2)cc1 (stereo not drawn),-0.249
11,COc1ccc2nc(N3CCOCC3)cc(C)c2c1,0.0652
12,Cc1ccnc(N/C=C(\C#N)c2nc(-c3cccc(Br)c3)cs2)c1,-0.134
13,CCC(C)(C)n1nnnc1C(c1ccc2ncccc2c1)N1CCN(Cc2ccc3c(c2)OCO3)CC1 (stereo not drawn),-0.494
14,COc1ccc2c(c1)CCc1c(C(=O)N3CCCc4ccccc43)noc1-2,-0.446
15,COC(=O)C(CC(C)C)NC(=O)c1ccc([N+](=O)[O-])c(C)c1 (stereo not drawn),2.9
16,COCCNC(=O)CCn1c(=O)oc2ccccc21,0.385
17,CCOC(=O)Cn1nnc2c(sc3nc4c(c(-c5ccc(Cl)cc5)c32)CCC4)c1=O,-0.217
18,CC(C)c1ccc(/C=c2\sc3nc(-c4ccncc4)nn3c2=O)cc1,-0.232
19,CCn1cc(CNC(=O)c2c(-c3c(Cl)cccc3Cl)noc2C)c(C)n1,1.02
20,CC(C)c1ccccc1-n1c(SCC(=O)N2CCc3ccccc3C2)nc2ccccc2c1=O,-0.419
21,Cc1ccc(-n2c(C)c3c(C)nnc(C)c3c2C)cc1C,-0.385
22,Cc1ccccc1OC(=O)n1c(=S)oc2cc(Cl)ccc21,1.42
